Measurements published in PubChem BioAssay AID1508624 (National Center for Advancing Translational Sciences (NCATS), 2021).
The whole screen tested about 48,000 compounds, of which about 120 (0.25%) were called active. Inconclusive results (about 4%) are left out. Calls come from the whole dose curve; as a rule, active = well fitted activation curve with a large enough effect; inconclusive = small, poorly fitted or top-dose-only effect, or another doubt; inactive = no such curve, though single readings can be large or run the other way. This is one part of the list.

test: Primary qHTS for Identification of Small Molecule Activators of Huntingtin-Antisense Promoter Activity; conditions: HEK293 HTT-AS promoter firefly luciferase reporter, 24 h; series mostly up to 57.5 µM; activity change, positive = activation: at the top concentration; note: nearly all actives have a fitted effect of over 55% in size
Outline: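 Firefly luciferase signal from promoter-reporter HEK293 cells was scaled between vehicle (0%) and zero RLU (-100%). Compounds were tested at final concentrations of up to 57.5 uM over 24 h at 37 degrees C. PTC124 at 50 uM final served as control inhibitor.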
Potency is the fitted concentration of half-maximal effect.

Activity change, positive = activation, inactive:
Cc1ccc(-n2c(SCc3cccc(F)c3)nc3[nH]ncc3c2=O)cc1C -29.5%
COc1ccc(C2CC(=O)c3cc(-c4nc(-c5ccc(Cl)cc5)c(C)s4)c(=O)[nH]c3C2)cc1 (stereo not drawn) -6.4%
Cc1ccc2c(c1)-c1cc(C)nn1C(c1cc(Br)ccc1O)N2 (stereo not drawn) 11% [at 11.5 µM, percent change from vehicle, -100% = no light]
COc1cc(OC)c(OC)cc1/C=C/c1nc2cc3ccccc3cc2c(=O)n1-c1ccc(F)cc1F -22.8%
CCNC(=O)[C@H]1O[C@@H](n2cnc3c(N)nc(NCCc4ccc(CCC(=O)O)cc4)nc32)[C@H](O)[C@H]1O -7.82%
O=S(=O)(Nc1nc2n(n1)C(c1ccc(F)cc1)C=C(c1ccccc1)N2)c1ccccc1 (stereo not drawn) -13.1%
COC(=O)c1ccc2c(=O)n(CCCCCC(=O)NCc3ccc(Cl)cc3)c(=O)[nH]c2c1 -21.9%
Cc1cc(C)c2c(=O)cc(C(=O)Nc3ccccc3C(F)(F)F)oc2c1 9.28% [at 11.5 µM, percent change from vehicle, -100% = no light]
CCc1ccc(CNC(=O)c2ccc(NC(=O)N3CC(C)Sc4ccccc43)cc2)cc1 (stereo not drawn) -19.5%
Cc1cc(NC(=O)CCS(=O)(=O)c2cc3c4c(c2)CCN4C(=O)CC3)ccc1Br -0.692%
CC(C)(C)c1ccc(C(=O)NCC(c2cccs2)S(=O)(=O)c2ccccc2)cc1 (stereo not drawn) -36.1%
COc1ccc(CNC(=O)c2ccc(N3CCCC3)c(NC(=O)NCc3ccc(C)cc3)c2)cc1 0.869%
Cc1nn2c(-c3cccc(NC(=O)c4ccccc4)c3)nnc2c2ccccc12 -6.64%
COc1ccc(-c2cc(C)no2)cc1S(=O)(=O)N1CCOc2ccccc21 -29.6%
Cc1cccc(N2CCN(C(=O)CCc3nnc4n(CC(C)C)c(=O)c5ccccc5n34)CC2)c1C -16.9%
COc1ccc(-c2cn3c(n2)sc2cc(C(=O)Nc4ccc(C)c(C)c4)ccc23)cc1 10.1%
O=C(Cc1ccccc1)N(Cc1cccnc1)c1nc2c(F)cc(F)cc2s1 -27.7%
CCOC(=O)c1c(C)oc2ccc(N(C(=O)Oc3ccccc3)S(=O)(=O)c3ccc(CC)cc3)cc12 -29%
CC(C)c1ccc(OCC(=O)NC(Cc2c[nH]c3ccccc23)C(=O)O)cc1 (stereo not drawn) -6.81%
Cc1cccc(OC(=O)CSc2nnc(CNC(=O)c3ccccc3)o2)c1C -9.45%
O=C(Nc1ccc(F)cc1)c1oc2ccccc2c1NC(=O)C12CC3CC(CC(C3)C1)C2 -8.98%
COc1ccc(CCNC(=O)c2ccc3c(c2)N(Cc2c(F)cccc2Cl)C(=O)CS3)cc1OC -41.9%
CCc1ccccc1N(CC)C(=O)c1c(C)oc2ncnc(N3CCOCC3)c12 -7.13%
CCOC(=O)C1CCN(c2nc3c(S(=O)(=O)c4ccccc4)nnn3c3ccsc23)CC1 -4.9%
Cc1ccccc1C(=O)Nc1ccc(OCc2cc(=O)n3cccc(C)c3n2)cc1 -11%
CC1=C(c2ccc(C)c(C)c2)S(=O)(=O)N=C1N1CCC(C(=O)N2CCC(C(N)=O)CC2)CC1 -5.57%
O=C1COc2cc(S(=O)(=O)NCc3ccco3)c(Cl)cc2N1 -3.38%
O=c1c2oc3ccccc3c2n(Cc2ccc(Cl)cc2)c(=O)n1Cc1ccco1 -20.4%
Cc1cccc(CN2CCC(CNC(=O)c3c(C)oc4ncnc(N5CCCCC5)c34)CC2)c1 0.245%
CCN(C(=O)C1CCC(CNS(=O)(=O)c2cccc3nsnc23)CC1)c1ccc(C)c(C)c1 (stereo not drawn) -35.4%
CC(Sc1nc(=O)cc(N)n1CCc1ccccc1)C(=O)Nc1ccc(Cl)cc1 (stereo not drawn) 3.34%
CCOC(=O)c1c(-c2ccc(Br)cc2)csc1NC(=O)c1ccc(F)cc1 -10.9%
COC(=O)c1ccccc1NC(=O)CSc1nc2ccccc2nc1Cc1ccccc1OC -7.07%
CN(C(=O)c1cc2nc(-c3ccco3)cc(C(F)(F)F)n2n1)c1ccc(OC(F)(F)Cl)cc1 -12.4%
CCn1c(=O)sc2cc(NS(=O)(=O)c3ccc(F)c(C)c3)ccc21 -51.6%
O=C(CCS(=O)(=O)c1cc(Br)cc2c1N(C(=O)C1CC1)CC2)NCc1ccc(Cl)cc1 -22.5%
CCN(Cc1ccncc1)C(=O)C(CO)c1ccccc1 (stereo not drawn) -9.09%
CN(C)CCOC1=Cc2ccccc2Sc2ccc(Cl)cc21 -14.2%
COc1ccc(C2c3c(n(C)c4ccccc34)C(=O)N2CC(=O)Nc2ccc(C)c(Cl)c2)cc1 (stereo not drawn) -33.5%
Cc1ccc(-c2nc(SCCOc3ccccc3C)n3[nH]c(=O)cc3n2)cc1 3.86%
Cc1ccc(NC(=O)Cn2cc(S(=O)(=O)c3ccc(C)cc3)c(=O)c3cc4c(cc32)OCO4)cc1 -21.5%
COC(=O)Nc1nc2ccc(C(=O)C3CC3)cc2[nH]1 6.52%
CNS(=O)(=O)c1cn(CC(=O)N2CCN(c3ccccc3F)CC2)cc1S(=O)(=O)NC -9.46%
CCc1ccc(OC(C)c2nc(-c3ccc(-n4cccc4)cc3)no2)cc1 (stereo not drawn) -14.9%
CCOc1ccc(CCNc2ncnc3onc(-c4ccc(Cl)cc4)c23)cc1OCC -33.2%
C[C@@]12C(=O)OC(=O)[C@]1(C)C1CCC2O1 -48.1%
COc1ccc(NC(=O)C(c2ccc(C)cc2)N(C)C(=O)/C=C\c2ccc3c(c2)OCO3)cc1 (stereo not drawn) -18.4%
OC(CCN1CCCCC1)(c1ccccc1)C1CC2C=CC1C2 (stereo not drawn)
O=S(=O)(NCc1csc(-c2ccccc2)n1)c1cccc(F)c1 -11%
Cc1ccc(CN(Cc2ccco2)C(=O)COc2ccccc2C)cc1 -21.3%
CCOC(=O)c1ccc(NC(=O)CCc2c(C)nc3c(c(C)nn3-c3ccccc3)c2C)cc1 -5.77%
CC(=O)N1CCOc2cc(S(=O)(=O)NC(C)c3ccccc3)c(Cl)cc21 (stereo not drawn) -17.6%
Cc1cccc(C(=O)Nc2sc3c(c2C(=O)N2CCCCC2)CCC(C)C3)c1 (stereo not drawn) -25.4%
CCN(CC)CCNC(=O)c1c(C)oc2ncn(C)c(=O)c12 -2.41%
CCN(CC)CC#CCOC(=O)C(O)(c1ccccc1)C1CCCCC1 (stereo not drawn) -10.6%
Cc1oc2ccc(O)c(CN(C)Cc3ccccc3)c2c1C(=O)Nc1ccccc1 -33.9%
O=C(CCc1cn(Cc2ccc(F)cc2)c2ccccc12)NCCc1ccc(Cl)cc1 -23%

Potency, active:
COc1ccc(NC(=O)Nc2nnc(C)s2)cc1 11.2 µM
